Reference: paper doi:10.1101/2022.04.06.487260, “The purified recombinant FAT domain of the Focal Adhesion Kinase does not bind directly to recombinant Talin or MBD2 in vitro” (bioRxiv, 2022)

T1: FAT domain of human FAK (892-1052) (human, UniProt Q05397 892-1052)
T1 construct: focal adhesion kinase (FAK), human, residues 892-1052: FAT domain with N-terminal residues preceding the four-helix bundle (922-1049); Expressed as GST fusion from pGex-6P2 and released from the beads with 3C protease; 15N-labelled (M9 medium with 15N-NH4Cl) for the NMR experiments; also called FAT892-1052; FAK FAT; source: E. coli BL21, purified (Glutathione Sepharose 4B, 3C protease, Superdex …)
T1 sequence (looked up): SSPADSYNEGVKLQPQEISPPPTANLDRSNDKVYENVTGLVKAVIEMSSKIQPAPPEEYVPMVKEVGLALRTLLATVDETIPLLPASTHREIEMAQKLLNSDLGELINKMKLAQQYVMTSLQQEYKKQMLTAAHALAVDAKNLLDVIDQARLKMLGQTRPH


Molecular target: T1, FAT domain of human FAK (892-1052)
Test: ITC; 100 μM MBD2 fragments titrated onto 5 μM FAT892-1052 in the cell; 15°C; 20 mM HEPES pH 7.5, 150 mM NaCl, 0.5 mM TCEP
Details: both partners purified

| Kd | Binder |
| --- | --- |
| > 20 µM | MBD2 fragment 3 (MBD2 […]) (domain or fragment, gene codon optimised and synthesised; The forward primer encodes a 3C site before the fragment; source: E. coli BL21 (DE3), purified (Nickel beads, 3C protease, gel filtration)) not shown |
| > 20 µM | MBD2 fragment 2 (MBD2 […]) (domain or fragment, gene codon optimised and synthesised; Fragment 2 was also cloned, expressed and purified from pET28b with a His-tag; The forward primer encodes a 3C site before the fragment; source: E. coli BL21 (DE3), purified (Nickel beads, 3C protease, gel filtration)) not shown |
